Results: PubChem BioAssay AID488969 (Vanderbilt High Throughput Screening Facility, 2010)
In all, about 110,000 compounds were measured (“z-score”: median about -0.1, highest 2% from about 2 on). Some of the results follow. Calls of active or inactive are those of the source.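 How the source made its calls: active means z-score in the third read window above 3 or below -3; inactive means the rest.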

molecular target: Metabotropic glutamate receptor 8 (Rattus norvegicus) (UniProt P70579); experiment: mGluR8 Gi/Go-coupled signaling modulation – cell-based, rat, thallium flux, HTS, primary screen (AID 488969); conditions: HEK293 rat mGluR8, GIRK (G protein-gated inwardly rectifying potassium channel) thallium flux, FluoZin2; at 10 µM; stronger effect = higher value; submaximal glutamate (EC20) added with thallium
Sequence of UniProt P70579 (P70579 whole entry, looked up): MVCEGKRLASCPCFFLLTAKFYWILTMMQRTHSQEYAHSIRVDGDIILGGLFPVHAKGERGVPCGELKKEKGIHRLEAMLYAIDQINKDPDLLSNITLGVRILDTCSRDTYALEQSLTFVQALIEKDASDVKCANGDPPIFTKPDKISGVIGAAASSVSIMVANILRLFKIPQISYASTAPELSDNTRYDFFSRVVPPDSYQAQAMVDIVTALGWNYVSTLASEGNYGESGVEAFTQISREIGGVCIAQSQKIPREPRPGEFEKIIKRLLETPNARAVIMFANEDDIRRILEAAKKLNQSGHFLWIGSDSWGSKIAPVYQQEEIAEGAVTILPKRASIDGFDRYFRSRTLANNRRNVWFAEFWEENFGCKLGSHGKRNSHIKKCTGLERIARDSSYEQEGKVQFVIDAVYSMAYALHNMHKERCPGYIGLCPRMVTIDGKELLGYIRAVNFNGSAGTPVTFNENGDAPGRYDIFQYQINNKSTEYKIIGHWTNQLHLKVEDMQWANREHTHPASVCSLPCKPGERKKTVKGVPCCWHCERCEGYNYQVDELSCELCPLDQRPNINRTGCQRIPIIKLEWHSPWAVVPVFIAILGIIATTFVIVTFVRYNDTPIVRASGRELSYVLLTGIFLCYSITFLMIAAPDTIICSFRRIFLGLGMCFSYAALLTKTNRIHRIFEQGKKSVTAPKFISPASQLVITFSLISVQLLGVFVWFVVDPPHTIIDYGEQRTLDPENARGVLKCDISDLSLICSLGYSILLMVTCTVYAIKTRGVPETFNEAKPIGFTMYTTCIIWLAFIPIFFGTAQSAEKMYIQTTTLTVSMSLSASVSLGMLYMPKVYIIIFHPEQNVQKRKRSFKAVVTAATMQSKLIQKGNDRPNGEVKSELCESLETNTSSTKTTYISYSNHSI

| Compound | z-score |
| --- | --- |
| O=C(NCc1ccccc1)c1cccc(COc2ccc3c(c2)CCC3)c1 | 0.0209 |
| CCCC(=O)Nc1cccc(NC(=O)c2ccccc2Br)c1 | -0.00843 |
| COC(=O)CNC(c1ccccc1Cl)c1cc(Br)ccc1NC(=O)CCN1CCOCC1 (stereo not drawn) | -0.438 |
| Cc1noc(C)c1COC(=O)CCCc1nc2ccccc2s1 | -0.721 |
| CC(=O)N(Cc1ccco1)C1(C(=O)NC2CCCCC2)CCCCC1 | -0.323 |
| CCC(=O)N1C(=O)CCN(C(C)=O)c2ccccc21 | 1.2 |
| COc1ccc(C(=O)N2CCN(S(=O)(=O)N3CCOCC3)CC2)cc1OC | 0.345 |
| Cc1cc(C)c(C#N)c(SCc2cn3ccccc3n2)n1 | -0.255 |
| Cn1c(SCC(=O)Nc2cccc(F)c2)nnc1-c1cc2ccccc2o1 | -0.2 |
| COc1cc(S(=O)(=O)N(Cc2ccccn2)Cc2ccco2)ccc1-n1cnnn1 | -0.493 |
| Cc1ccc(C)c(C(=O)n2cnnc2N)c1 | 0.51 |
| COc1ccc(S(=O)(=O)Nc2ccccc2C(=O)OC2CCCN(C)C2)cc1OC (stereo not drawn) | 1.28 |
| COc1ccc(NC(=S)NC2CCCCCC2)c(OC)c1 | -0.0804 |
| COc1cc(/C=N/NC(=O)CC2(C)OCCCO2)ccc1OCc1ccc(Cl)cc1Cl | -0.164 |
| O=C(C1=C(O)C(=O)N(CCN2CCOCC2)C1c1ccccc1)c1cccs1 (stereo not drawn) | -0.318 |
| O=C(c1nc2nc(-c3cccs3)cc(C(F)(F)F)n2n1)N1CCN(Cc2ccccc2)CC1 | -0.643 |
| COc1ccc(S(=O)(=O)N2CCCCC2C(=O)O)cc1 (stereo not drawn) | 0.392 |
| Cc1nc(SCC(=O)N2CC(C)OC(C)C2)nc(C)c1C (stereo not drawn) | -0.685 |
| O=C(C1CCCN(S(=O)(=O)c2cccc3nonc23)C1)N1CCC(Cc2ccccc2)CC1 (stereo not drawn) | -0.363 |
| C/C(N)=C(/C#N)C(=O)COC(=O)c1ccccc1O | 0.123 |
| O=C(NNS(=O)(=O)c1ccccc1)C1CCN(S(=O)(=O)c2ccc(Cl)cc2)CC1 | -0.131 |
| CCN(CC)CCCN1C(=O)c2oc3ccccc3c(=O)c2C1c1cccs1 (stereo not drawn) | active: 13.2 |
| Cc1[nH]c(=O)[nH]c(=O)c1S(=O)(=O)N1CCCC(C(=O)NCCc2ccccc2)C1 (stereo not drawn) | 0.415 |

| Compound | z-score |
| --- | --- |
| c1coc(CNc2ncnc3ccccc23)c1 | -0.0471 |
| CC1CC(C)CN(C(=O)/C(=C\c2ccccc2)c2ccccc2)C1 (stereo not drawn) | -0.206 |
| Cc1nnc(SCC(=O)c2cc(C)n(C3CC3)c2C)s1 | 0.0306 |
| CC(c1nnc(SCC(=O)c2c(N)n(C)c(=O)n(C)c2=O)n1-c1ccc(Cl)cc1)N(C)C (stereo not drawn) | -0.257 |
| COC(=O)C1=C(C)Nc2nnnn2C1c1cccnc1 (stereo not drawn) | -0.944 |
| CC(C)OCCCn1c(=NC(=O)c2ccncc2)c(C#N)cc2c(=O)n3ccccc3nc21 | -0.546 |
| N#Cc1cccc(C(c2nnnn2Cc2ccccc2)N2CCCC2)c1 (stereo not drawn) | -0.026 |
| CCNS(=O)(=O)c1cc(OC)ccc1OC | -0.256 |
| Cc1cc(NC(=O)c2cccc(S(=O)(=O)N3CC(c4ccccc4)CC3=O)c2)no1 (stereo not drawn) | -0.591 |
| O=C(Nc1ccc(N2CCCC2)c(Cl)c1)c1ccc2c(c1)OCCO2 | 2.58 |
| CS(=O)(=O)N(Cc1ccc(C(=O)NCCSc2ccccn2)cc1)c1ccccc1 | -0.215 |
| O=C(CCC1CCCC1)N1CCC(N2CCN(c3ccccc3)CC2)CC1 | -0.3 |
| Cc1ccc(NC(=O)c2c(C(F)(F)F)nn(C)c2SCc2ccc(Cl)cc2)cc1C | -0.137 |
| Cc1cc(SCC(N)=O)nc(SCC(=O)c2ccccc2)n1 | 0.0799 |
| O=C(CSc1ccc(Cl)cc1)N1CCN(c2ccc(Cl)cc2[N+](=O)[O-])CC1 | -0.109 |
| CCn1c(SCC(=O)O)nnc1-c1cc2c(C)nn(-c3ccccc3)c2s1 | -0.268 |
| O=C(NC1(C(F)(F)F)NC(=O)N(CC2CCCCC2)C1=O)c1ccco1 (stereo not drawn) | 0.164 |
| COCCCNC(=S)N1CCN(C(=O)c2ccco2)CC1 | -0.034 |
| CC1CCC2C(=O)N(c3ccc(C(=O)Oc4cccc5cccnc45)cc3)C(=O)C2C1 (stereo not drawn) | 0.0861 |
| CCCN(CCC)CCNC(=O)C1c2ccccc2C(=O)N(CCOC)C1c1ccc(F)cc1 (stereo not drawn) | 0.26 |
| COC(=O)c1cc(NC(=O)c2ccccc2)c(=O)oc1C/C=N\OCc1ccc(Cl)cc1Cl | 0.00511 |
| CC(C)Oc1cccc(C(=O)Nc2ccc(Br)cc2F)c1 | -0.258 |
| CCN1CCN(c2ccc([N+](=O)[O-])c(Sc3nc4ccccc4[nH]3)c2)CC1 | -0.415 |

| Compound | z-score |
| --- | --- |
| COc1ccc(C2=NN(c3nc4ccccc4s3)C(=O)/C2=C\N(C)C)cc1 | -0.127 |
| CCOC(=O)N1CCC(N2CC34C=CC(O3)C(C(=O)O)C4C2=O)CC1 (stereo not drawn) | 0.198 |
| O=C(O)CCC(=O)N1N=C(c2ccco2)CC1c1cccs1 (stereo not drawn) | -0.253 |
| O=C1c2oc3ccc(Cl)cc3c(=O)c2C(c2ccco2)N1CCN1CCOCC1 (stereo not drawn) | 0.841 |
| CC(=O)c1cccc(N(C(=O)CS(=O)CC(=O)Nc2ccc(F)cc2)C(C(=O)NC2CCCCC2)c2ccc(C)o2)c1 (stereo not drawn) | -0.235 |
| C=CCOC(=O)c1cc(-c2ccc(/C=C3\C(=O)NC(=O)C(C#N)=C3C)o2)ccc1Cl | -0.253 |
| COc1ccc(Cn2nnnc2CN(Cc2cc3cc(C)ccc3[nH]c2=O)C2CCCC2)cc1 | 0.604 |
| COCCCNC(=O)c1c(NC(=O)c2cccs2)sc2c1CCCC2 | -0.00951 |
| O=C1CC(c2ccc3c(c2)OCO3)c2cc3c(cc2N1)OCCO3 (stereo not drawn) | 0.0815 |
| COc1cc(/C=N/N=C2/C(=O)Nc3ccccc32)ccc1O | -0.325 |
| Cc1ccc(C(=O)c2c[nH]cc2-c2ccccc2)cc1 | -0.0163 |
| CN(C)C(=O)N1CCN(C(=O)N(C)C)CC1 | 0.477 |
| O=C(CN(C(=O)Cn1nnc(-c2cccs2)n1)c1ccc2c(c1)OCCO2)NC1CCCCC1 | -0.0843 |
| CCOc1ccc2c(c1)C(c1ccc(C)cc1)=NNC(c1ccc(OC)cc1)=N2 | -0.237 |
| Cc1ccc(Oc2nnc(-c3ccccc3)c3ccccc23)cc1 | -0.491 |
| Cc1ccc(N(C(=O)c2cc3ccccc3oc2=O)C2C=CS(=O)(=O)C2)cc1 (stereo not drawn) | -0.201 |
| CCOC(=O)c1[nH]c(C)c(C(=O)NCCN2CCOCC2)c1C | -0.193 |
| OCCn1c(SC2CCCCC2)nc2ccccc21 | 0.162 |
| O=C(/C=C/c1ccc2c(c1)OCCCO2)c1ccc2ccccc2c1O | 0.573 |
| Cc1nn2c(NCCOCCO)c3c(nc2c1-c1ccccc1)CCCC3 | -0.295 |
| c1ccc(-c2nc(N3CCNCC3)nc3ccccc23)cc1 | 0.808 |
| COc1ccc(Cc2nnc(NC(=O)c3ccco3)s2)cc1 | -0.607 |
